Assay results taken from paper PMC6919601, “Identification of Plasmodium dipeptidyl aminopeptidase allosteric inhibitors by high throughput screening” (PLoS ONE, 2019).
Hit rate of the full screen: of about 110,000 compounds, about 230 (0.21%) showed an effect of 50% or more. The list shows a part of the results.

target: DPAP1 (Plasmodium falciparum, UniProt Q8IIJ9); assay: primary screen, percent inhibition; read by cleavage of a fluorogenic dipeptide substrate; higher = more effect of the substance; parameters: species or system P. falciparum D10 trophozoite lysates; single well
Sequence (Q8IIJ9 whole entry, looked up): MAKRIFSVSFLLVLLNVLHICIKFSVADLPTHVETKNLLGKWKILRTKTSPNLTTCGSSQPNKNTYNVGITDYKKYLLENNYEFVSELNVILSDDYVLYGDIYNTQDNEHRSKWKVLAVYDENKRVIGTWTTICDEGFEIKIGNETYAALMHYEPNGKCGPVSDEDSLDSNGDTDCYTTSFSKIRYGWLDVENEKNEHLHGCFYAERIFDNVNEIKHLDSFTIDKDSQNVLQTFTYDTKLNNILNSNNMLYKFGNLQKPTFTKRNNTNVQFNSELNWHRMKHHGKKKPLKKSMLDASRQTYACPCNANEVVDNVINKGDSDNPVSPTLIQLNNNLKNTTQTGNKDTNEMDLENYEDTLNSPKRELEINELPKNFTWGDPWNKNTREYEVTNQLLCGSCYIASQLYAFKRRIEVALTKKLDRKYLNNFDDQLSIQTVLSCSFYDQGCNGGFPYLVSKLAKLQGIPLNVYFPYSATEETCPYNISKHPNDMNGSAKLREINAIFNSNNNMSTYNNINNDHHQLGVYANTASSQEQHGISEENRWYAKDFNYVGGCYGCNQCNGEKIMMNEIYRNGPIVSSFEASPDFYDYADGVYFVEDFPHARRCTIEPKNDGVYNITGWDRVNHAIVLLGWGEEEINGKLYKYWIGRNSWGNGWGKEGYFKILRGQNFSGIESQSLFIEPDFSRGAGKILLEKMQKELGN
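Also: 30 min substrate incubation versus DMSO and 10 µM JCP410 controls.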

Structure (SMILES)	% Inhibition @ 10 uM
COc1cc(CNc2ccccc2)ccc1OCC(=O)Nc1cccc(C)c1	1.05%
O=C(CCCn1sc2ccccc2c1=O)N1CCN(c2ccccn2)CC1	4.26%
CCOC(=O)c1c(-c2ccc(OCC)cc2)csc1NC(=O)C1CCCCC1C(=O)O (stereo not shown)	-1.1%
CSc1ccc(CN2CCN(c3ccc(C(C)=O)cc3)CC2)cc1	2.26%
Cn1ncc(Br)c1C(=O)NC1C2CC3CC(C2)CC1C3 (stereo not shown)	-2.28%
O=C(NCc1cccc(Cl)c1)C1CCCN(c2nnc(-n3cccc3)s2)C1 (stereo not shown)	-4.04%
O=C(Nc1nnc(-c2ccccc2)s1)C1CCCCC1	1.24%
O=C1OC(c2ccccc2F)=N/C1=C\c1cccs1	-8.36%
CN(CCCNS(=O)(=O)c1ccc(-c2cc(C(F)(F)F)no2)s1)C1CCCCC1	0.359%
Cc1cc(NC(=O)CSc2nc3ncccc3c(=O)n2Cc2ccccc2)[nH]n1	-3.44%
O=C(Nc1ccc(-c2csc(-c3ccccc3)n2)cc1)c1cccnc1	3.17%
CN1CCc2c(sc(N)c2C#N)C1	0.238%
COc1ccc(OC)c2c(N)c(C#N)c(C(F)(F)C(F)(F)F)nc12	3.47%
CNC(=O)c1ccc(Cn2c(SCc3ccccc3)nc3cccnc32)cc1	0.693%
COc1cc(CCNc2cnnc3c(Cl)cccc23)cc(OC)c1	-5.76%
COc1cc(F)c(C[C@H](NC(=O)c2ccc(-c3ccccc3Cl)cc2)C(=O)NCC#N)c(F)c1	-0.207%
CCOc1ccc(NC(=O)c2ccc3c(c2N)C(=O)c2ccccc2C3=O)cc1	-0.693%
CCCN1CCC(NCc2ccc(Cl)cc2Cl)CC1	1.88%
COc1ccc(OC)c(NC(=O)CC2NCCNC2=O)c1 (stereo not shown)	0.907%
CC(c1ccccc1)C(CC(=O)O)C(=O)NCc1ccccc1 (stereo not shown)	4.41%
COc1cc(NS(=O)(=O)c2ccc(NC(=O)Nc3ccc(Cl)cc3)cc2)ncn1	0.431%
N#Cc1ccc(-c2ccc(/C=C3\NC(=O)N(Cc4ccc(Cl)c(Cl)c4)C3=O)o2)cc1	0.147%

Structure (SMILES)	% Inhibition @ 10 uM
Cc1nc2ccccc2n1CCC(=O)O	-4.78%
CCOc1ccc(NC(=O)CN2C(=O)S/C(=C/c3cccc(O)c3)C2=O)cc1	-3.92%
COc1ccc(/C=C2\NC(=O)C(/C=N/Cc3ccccc3)=C2O)cc1	-8.35%
N#CCNC(=O)[C@@H](Cc1c[nH]c2ccccc12)NC(=O)OCc1ccccc1	-3.34%
COc1ccc2nc3oc(C(=O)N4CCN(C(=O)c5ccco5)CC4)cc3cc2c1	1.9%
c1coc(-c2nnc(C3CCCCC3)o2)c1	-3.32%
CN(C)CCOC(=O)C12CC3CC(c4ccccc4)(C1)CC(c1ccccc1)(C3)C2	-1.54%
N=c1c(C(=O)NCc2cccnc2)cc2c(=O)n3ccccc3nc2n1CCCn1ccnc1	-5.62%
Cc1nn(-c2nc3ccccc3s2)c(N)c1-c1ccc(Cl)cc1	2.16%
COc1ccc(-c2cc(C(F)(F)F)n3nc(C(=O)N4CCOCC4)cc3n2)cc1OC	3.9%
Cc1cc(NC(=O)CSC2=N/C(=C/c3ccc(N(C)C)cc3)C(=O)N2c2ccccc2)no1	4.28%
Clc1ccc(Nc2ncnc3sc4c(c23)CCCC4)cc1Cl	-3.93%
C=CCSc1nnc2sc3ccccc3n12	-5.26%
COCCn1c(-c2ccccc2)cc(C(=O)O)c1C	1.94%
Cc1cccn2c(=O)c(/C=C3\SC(=S)NC3=O)c(NCCCn3ccnc3)nc12	-3.21%
Cc1nc2ncnn2c(O)c1CCC(=O)NC1CCCCCC1	-1.3%
CCN(CC)c1nc2c(S(=O)(=O)c3ccc(Cl)cc3)nnn2c2ccsc12	-4.95%
CC1CCC(N2CCN(c3ccc(Cl)cc3)CC2)C1 (stereo not shown)	-1.41%
Cc1cc2ccccc2n1CCNC(=O)C12CC3CC(CC(C3)C1)C2	2.54%
Cc1ccc2c(c1)-c1c(cnn1CC(=O)NCCN1CCC(Cc3ccccc3)CC1)CO2	5.92%
CCc1nc(SCc2cccnc2)c(C#N)c(C(F)(F)F)c1C	0.775%
N#CCCN1CCn2c3c(c4cc(C5CCCCC5)ccc42)CCCC31 (stereo not shown)	-0.999%

Structure (SMILES)	% Inhibition @ 10 uM
Cc1ccc(C(=O)N2CCN(C/C=C/c3ccccc3)CC2)cc1	-0.636%
Cc1ccc(-c2noc(CSc3nnnn3-c3ccccc3)n2)cc1	1.31%
CC12CN3CC(C)(CN(C1)C3c1ccccc1)C2 (stereo not shown)	2.51%
COc1ccccc1C(=O)NCCn1cc(SCC(=O)Nc2nnc(C)s2)c2ccccc21	1.08%
CC(=O)N1CCN(Cc2ccc(Cl)cc2)CC1	2.7%
Cc1ccc(OCC(=O)Nc2ccc(S(=O)(=O)Nc3nc(C)cc(C)n3)cc2)cc1	-7.14%
CCOC(=O)N1CCN(c2c(N3CCC(C(N)=O)CC3)c(=O)c2=O)CC1	0.277%
O=S1(=O)C2C=C(Cc3ccccc3)C1CCC2 (stereo not shown)	-6.58%
Cc1nnc2c(NCCCN3CCN(Cc4ccccc4)CC3)nc3ccccc3n12	0.372%
COc1ccc2nc(NC(=O)C3CCN(S(=O)(=O)c4c[nH]cn4)CC3)sc2c1	-4.14%
CCN1CC(C)C(O)(c2ccccc2)CC1C (stereo not shown)	4.7%
Nc1cc(-c2ccc(Br)cc2)nn1Cc1ccccc1	-3.69%
CCSc1nc(-c2ccccc2)cc(-c2cccnc2)c1C#N	-4.12%
Cc1ccc2nc3c(cc(C(=O)NC(C)c4ccccc4)c(=N)n3Cc3cccnc3)c(=O)n2c1 (stereo not shown)	-5.14%
O=C1CCSc2c1cccc2C(=O)NC1CCCCC1	-1.71%
Nc1nc(-c2cccnc2)nn1C(=O)c1ccc(F)cc1	0.628%
CCOC(=O)c1cnc(SCC(=O)NCc2ccccc2)nc1N	0.558%
Cc1nn(CC(=O)N2CC(C)CC(C)C2)c(=O)c2c1sc1ccccc12 (stereo not shown)	1.61%
CCN(CC)CCN(C)C/C=C/c1ccccc1	3.24%
CCN1CCN(C(=O)C2CCN(S(=O)(=O)N3CCC4(CC3)OCCO4)CC2)CC1	-1.21%
